# According to the supplement of paper PMC8728848:
# The other results are listed elsewhere or left out.
# B1: Crocus Lectin (Crocus vernus), Q9FVA1 (protein)
# chain: MAKSLVLSSLLLALLLAAPLASLADNNVLLTGDVLHTDNQLSFESAAFVMQGDCNLVLYNEAGGFQSNTHGRGVGCTLRLNNFGQLEIHSANSNTPVWVSLRNGIPVRGDYAAVLGPDQHVTIYGPAIWSTPAPNRHERGATVSNIPRVRNVLFSSQVMSDNAQLATRDYSLVMRDDCNLALTKGSKTNIVWESGTSGRGQHCFMRLGHTGLIEISDDRLNTVWRSNTVGQEGDYVLILQINGQAVVYGPAVWSTASPARGGASAAL
# Key:
# Assay in all cases: glycan array binding signal (z-score within array); higher = stronger binding
# Details in all cases: glycan notation: IUPAC condensed, linker removed
# [1] = molecular target: Neu5Ac(a2-3)Gal(b1-4)GlcNAc6S
# Summary of the method: (§1)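 Glycan array data came from 3228 arrays in the Consortium for Functional Glycomics database, and only arrays with an available protein sequence were kept. Glycan names were put into IUPAC-condensed notation, and columns mapping to the same glycan were averaged. The binding signal is a within-array Z-score, averaged across arrays of one protein sequence run at different concentrations or buffers and across linkers. A negative Z-score can be read as non-binding.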
# [2] = molecular target: Neu5Ac(a2-3)Gal(b1-4)[Fuc(a1-3)]GlcNAc
# Summary of the method: as §1
# [3] = molecular target: Neu5Ac(a2-3)Gal(b1-4)[Fuc(a1-3)]GlcNAc(b1-3)Gal
# Summary of the method: as §1
# [4] = molecular target: Neu5Ac(a2-3)Gal(b1-4)[Fuc(a1-3)]GlcNAc(b1-3)Gal(b1-4)GlcNAc
# Summary of the method: as §1
# [5] = molecular target: Neu5Ac(a2-3)Gal(b1-4)[Fuc(a1-3)]GlcNAc(b1-3)Gal(b1-4)[Fuc(a1-3)]GlcNAc(b1-3)Gal(b1-4)[Fuc(a1-3)]GlcNAc
# Summary of the method: as §1
# [6] = molecular target: Neu5Ac(a2-3)Gal(b1-4)[Fuc(a1-3)]GlcNAc6S
# Summary of the method: as §1
# [7] = molecular target: Neu5Ac(a2-3)Gal6S(b1-4)GlcNAc
# Summary of the method: as §1
# [8] = molecular target: Neu5Ac(a2-3)Gal6S(b1-4)[Fuc(a1-3)]GlcNAc
# Summary of the method: as §1
# Neu5Ac(a2-3)GalNAc = molecular target: Neu5Ac(a2-3)GalNAc
# Summary of the method: as §1
# [9] = molecular target: Neu5Ac(a2-3)GalNAc(b1-4)GlcNAc
# Summary of the method: as §1
# [10] = molecular target: Neu5Ac(a2-3)[GalNAc(b1-4)]Gal(b1-4)Glc
# Summary of the method: as §1
# [11] = molecular target: Neu5Ac(a2-3)[GalNAc(b1-4)]Gal(b1-4)GlcNAc
# Summary of the method: as §1
# [12] = molecular target: Neu5Ac(a2-3)[Neu5Ac(a2-6)]GalNAc
# Summary of the method: as §1
# [13] = molecular target: Neu5Ac(a2-6)Gal(b1-4)GlcNAc
# Summary of the method: as §1
# [14] = molecular target: Neu5Ac(a2-6)Gal(b1-4)GlcNAc(b1-2)Man(a1-3)[Neu5Ac(a2-6)Gal(b1-4)GlcNAc(b1-2)Man(a1-6)]Man(b1-4)GlcNAc(b1-4)GlcNAc
# Summary of the method: as §1
# [15] = molecular target: Neu5Ac(a2-6)Gal(b1-4)GlcNAc(b1-3)Gal(b1-4)GlcNAc
# Summary of the method: as §1
# [16] = molecular target: Neu5Ac(a2-6)Gal(b1-4)GlcNAc(b1-3)Gal(b1-4)[Fuc(a1-3)]GlcNAc(b1-3)Gal(b1-4)[Fuc(a1-3)]GlcNAc
# Summary of the method: as §1
# [17] = molecular target: Neu5Ac(a2-6)Gal(b1-4)GlcNAc6S
# Summary of the method: as §1
# Neu5Ac(a2-6)GalNAc = molecular target: Neu5Ac(a2-6)GalNAc
# Summary of the method: as §1
# [18] = molecular target: Neu5Ac(a2-6)GalNAc(b1-4)GlcNAc
# Summary of the method: as §1
# Neu5Ac(a2-8)Neu5Ac = molecular target: Neu5Ac(a2-8)Neu5Ac
# Summary of the method: as §1
# [19] = molecular target: Neu5Ac(a2-8)Neu5Ac(a2-3)Gal(b1-4)Glc
# Summary of the method: as §1
# [20] = molecular target: Neu5Ac(a2-8)Neu5Ac(a2-3)[GalNAc(b1-4)]Gal(b1-4)Glc
# Summary of the method: as §1
# [21] = molecular target: Neu5Ac(a2-8)Neu5Ac(a2-8)Neu5Ac
# Summary of the method: as §1
# [22] = molecular target: Neu5Ac(a2-8)Neu5Ac(a2-8)Neu5Ac(a2-3)Gal(b1-4)Glc
# Summary of the method: as §1
# [23] = molecular target: Neu5Ac(a2-8)Neu5Ac(a2-8)Neu5Ac(a2-3)[GalNAc(b1-4)]Gal(b1-4)Glc
# Summary of the method: as §1
# [24] = molecular target: Neu5Ac(a2-8)Neu5Ac(a2-8)Neu5Ac(a2-8)Neu5Ac(a2-3)[GalNAc(b1-4)]Gal(b1-4)Glc
# Summary of the method: as §1
# [25] = molecular target: Neu5Ac9Ac(a2-6)Gal(b1-4)GlcNAc
# Summary of the method: as §1
# [26] = molecular target: Neu5Gc(a2-3)Gal(b1-3)GlcNAc
# Summary of the method: as §1
# [27] = molecular target: Neu5Gc(a2-3)Gal(b1-3)[Fuc(a1-4)]GlcNAc
# Summary of the method: as §1
# Neu5Gc(a2-3)Gal(b1-4)Glc = molecular target: Neu5Gc(a2-3)Gal(b1-4)Glc
# Summary of the method: as §1
# [28] = molecular target: Neu5Gc(a2-3)Gal(b1-4)GlcNAc
# Summary of the method: as §1
# [29] = molecular target: Neu5Gc(a2-3)Gal(b1-4)[Fuc(a1-4)]GlcNAc
# Summary of the method: as §1
# [30] = molecular target: Neu5Gc(a2-6)Gal(b1-4)GlcNAc
# Summary of the method: as §1
# Neu5Gc(a2-6)GalNAc = molecular target: Neu5Gc(a2-6)GalNAc
# Summary of the method: as §1
binder,measurement,setting,value
B1,glycan array binding signal (z-score),[1],-0.177
same,glycan array binding signal (z-score),[2],-0.195
same,glycan array binding signal (z-score),[3],-0.183
same,glycan array binding signal (z-score),[4],-0.17
same,glycan array binding signal (z-score),[5],-0.152
same,glycan array binding signal (z-score),[6],-0.195
same,glycan array binding signal (z-score),[7],-0.187
same,glycan array binding signal (z-score),[8],-0.197
same,glycan array binding signal (z-score),Neu5Ac(a2-3)GalNAc,-0.173
same,glycan array binding signal (z-score),[9],-0.181
same,glycan array binding signal (z-score),[10],-0.157
same,glycan array binding signal (z-score),[11],-0.181
same,glycan array binding signal (z-score),[12],-0.189
same,glycan array binding signal (z-score),[13],-0.178
same,glycan array binding signal (z-score),[14],-0.049
same,glycan array binding signal (z-score),[15],-0.174
same,glycan array binding signal (z-score),[16],-0.119
same,glycan array binding signal (z-score),[17],-0.168
same,glycan array binding signal (z-score),Neu5Ac(a2-6)GalNAc,-0.179
same,glycan array binding signal (z-score),[18],-0.186
same,glycan array binding signal (z-score),Neu5Ac(a2-8)Neu5Ac,-0.194
same,glycan array binding signal (z-score),[19],-0.184
same,glycan array binding signal (z-score),[20],-0.184
same,glycan array binding signal (z-score),[21],-0.172
same,glycan array binding signal (z-score),[22],-0.123
same,glycan array binding signal (z-score),[23],-0.176
same,glycan array binding signal (z-score),[24],-0.197
same,glycan array binding signal (z-score),[25],-0.167
same,glycan array binding signal (z-score),[26],-0.2
same,glycan array binding signal (z-score),[27],-0.16
same,glycan array binding signal (z-score),Neu5Gc(a2-3)Gal(b1-4)Glc,-0.203
same,glycan array binding signal (z-score),[28],-0.173
same,glycan array binding signal (z-score),[29],-0.185
same,glycan array binding signal (z-score),[30],-0.194
same,glycan array binding signal (z-score),Neu5Gc(a2-6)GalNAc,-0.197
